We go through 1 molecule from publication PMC9054013 (2022).

The assay deals with SGIP C block (UniProt Q9BQI5). Put plainly: ITC. (ITC needs no label: the signal is the heat of the interaction.)

B1: AP2 α-appendage ([…]) (domain or fragment)
chain: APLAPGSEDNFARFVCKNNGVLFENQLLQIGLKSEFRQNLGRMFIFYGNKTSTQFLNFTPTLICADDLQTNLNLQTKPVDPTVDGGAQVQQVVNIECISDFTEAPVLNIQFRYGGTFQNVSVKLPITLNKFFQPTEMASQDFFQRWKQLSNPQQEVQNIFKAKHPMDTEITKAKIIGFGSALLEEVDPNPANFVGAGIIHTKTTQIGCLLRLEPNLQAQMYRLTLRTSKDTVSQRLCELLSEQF
One may read the Kd as the constant that tells how readily two partners part at equilibrium. Read a high Kd as a looser complex. Regarding B1, binding was characterised by a dissociation constant (Kd) of 111 µM.
